Data reported in paper PMC4336329 (PLoS ONE, 2015).
Among all 310,000 compounds or so, about 14,000 (4.5%) showed an effect of 50% or more. Effects have a minus sign here. Some of the results follow.

What follows are compounds tested against human ether-à-go-go-related gene (hERG) potassium channel (human, UniProt Q12809) (assay: primary screen, population patch clamp on CHO cells stably expressing hERG).
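Note: peak tail current of the secondary pulse compared with the same well before compound.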

Chain of human ether-à-go-go-related gene (hERG) potassium channel (Q12809 whole entry, looked up): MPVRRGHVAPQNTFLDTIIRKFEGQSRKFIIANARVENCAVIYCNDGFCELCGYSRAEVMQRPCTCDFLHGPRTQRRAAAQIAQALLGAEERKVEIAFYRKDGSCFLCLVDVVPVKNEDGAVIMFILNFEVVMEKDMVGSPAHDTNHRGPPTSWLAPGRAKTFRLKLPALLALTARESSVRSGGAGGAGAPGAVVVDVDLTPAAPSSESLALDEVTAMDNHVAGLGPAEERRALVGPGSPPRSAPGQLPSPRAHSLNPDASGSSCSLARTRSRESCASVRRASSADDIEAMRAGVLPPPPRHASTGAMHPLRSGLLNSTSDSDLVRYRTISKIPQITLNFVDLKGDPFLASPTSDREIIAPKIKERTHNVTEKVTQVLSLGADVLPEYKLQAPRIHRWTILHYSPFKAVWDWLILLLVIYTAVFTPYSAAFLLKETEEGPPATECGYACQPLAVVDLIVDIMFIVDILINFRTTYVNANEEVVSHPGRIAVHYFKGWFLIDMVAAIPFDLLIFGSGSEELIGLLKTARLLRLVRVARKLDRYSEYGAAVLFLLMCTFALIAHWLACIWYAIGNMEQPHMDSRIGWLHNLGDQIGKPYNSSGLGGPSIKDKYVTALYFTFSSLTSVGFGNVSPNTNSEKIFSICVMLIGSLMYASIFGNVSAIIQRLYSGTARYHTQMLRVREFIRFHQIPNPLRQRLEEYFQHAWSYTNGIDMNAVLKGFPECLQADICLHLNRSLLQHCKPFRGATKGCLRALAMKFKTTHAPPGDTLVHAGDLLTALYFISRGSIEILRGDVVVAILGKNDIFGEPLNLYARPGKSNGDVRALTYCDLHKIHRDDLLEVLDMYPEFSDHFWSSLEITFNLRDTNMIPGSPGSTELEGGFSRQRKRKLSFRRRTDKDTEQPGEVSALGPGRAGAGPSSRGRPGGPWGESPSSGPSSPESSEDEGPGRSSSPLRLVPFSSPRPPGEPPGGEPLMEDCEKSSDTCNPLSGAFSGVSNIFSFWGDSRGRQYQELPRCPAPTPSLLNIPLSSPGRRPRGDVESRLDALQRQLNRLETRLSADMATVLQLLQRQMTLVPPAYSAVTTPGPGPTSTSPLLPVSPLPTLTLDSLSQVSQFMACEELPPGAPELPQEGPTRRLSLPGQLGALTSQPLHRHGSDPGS

Compound | hERG current change (%, negative = inhibition) at 10uM [%]
Cc1cc(C)c(-c2nc3ccccc3s2)[nH]1 | 12.1
FC(F)Oc1ccccc1NC(=S)Nc1cccnc1 | 12.2
Cc1cc(-c2csc(N)n2)c(C)n1C | 1.16
OC(CNC1Cc2ccccc2C1)COc1ccc(F)cc1 (stereo not shown) | -49.1
CSCCC(NC(=O)c1ccc(Cl)cc1Cl)C(=O)OC(C)C(=O)NCc1ccco1 (stereo not shown) | -51.8
Cc1cccc(N2C(=O)N3[C@H](c4ccc(Br)cc4)[C@@H]4C(=O)N(C(C)(C)C)C(=O)[C@@H]4[C@]3(C)C2=O)c1 | 3.79
O=C(O)Cc1c(-c2ccccc2)c2cc(Cl)ccc2[nH]c1=O | 22.1
CCS(=O)(=O)N1CCN(c2ccc(C(=O)NC3C4CC5CC(C4)CC3C5)cc2[N+](=O)[O-])CC1 (stereo not shown) | -11.7
CS(=O)(=O)N(CC(=O)NCC1CCCO1)c1cc(Cl)c(Cl)cc1Cl (stereo not shown) | -6
CCCS(=O)(=O)N1CCN(C2CCC(C)CC2)CC1.O=C(O)C(=O)O (stereo not shown) | 9.97
CCCCCCCOC(=O)C1=C(C)Nc2ncnn2C1c1cccs1 (stereo not shown) | -0.122
CCOC(=O)C1=C(Nc2ccccc2)CC(C)(O)C(C(=O)OCC)C1c1ccc(Br)cc1 (stereo not shown) | -7.83
CC(=O)Nc1ccc(S(=O)(=O)NC(C)C(=O)OCCOc2ccc(F)cc2)cc1 (stereo not shown) | -24.3
CCOc1ccc(S(=O)(=O)N2CCC(C(=O)NCc3ccncc3)CC2)cc1 | -37
COc1ccc(/C=N/N2CCN(c3ccccc3OC)CC2)cc1Br | 9.45
CCCNC(=S)N1CCN(c2nc(-c3ccc(C)cc3)cs2)CC1 | 5.6
Cc1ccc(NC(=O)CS(=O)CC(=O)Nc2ccccc2-c2ccc(C)o2)cc1 (stereo not shown) | -7.96
CN1CCc2c(sc(NC(=O)C3CCCN3S(=O)(=O)c3ccc(Cl)s3)c2C(N)=O)C1.Cl (stereo not shown) | -63.6
Cl.Nc1ccc2c(c1)nc(Cc1ccccc1)n2CCO | 11.6
COc1ccc(C)cc1NC(=O)C(NCC(O)c1ccccc1)c1ccccc1.O=C(O)C(=O)O (stereo not shown) | -21.7
CS(=O)(=O)c1ccccc1-c1nnc(NC(=O)c2cccc(N3C(=O)CCC3=O)c2)o1 | 4.71
O=C(NCc1cccnc1)NC1CCCN1S(=O)(=O)c1ccc(Cl)cc1 (stereo not shown) | -14.2

Compound | hERG current change (%, negative = inhibition) at 10uM [%]
Cc1ccccc1NC(=O)COC(=O)/C=C/c1cn(-c2ccccc2)nc1-c1cccnc1 | 9.19
CCOc1cccc2sc(NC(=O)CC)nc12 | 2.42
O=C(CN1C(=O)C2C3C=CC(C3)C2C1=O)NCCC1=CCCCC1 (stereo not shown) | -8.79
O=C(/C=C/c1ccc(Br)cc1)NCc1cccs1 | 6.86
O=C(NCCc1ccc(Cl)cc1)C1CCN(S(=O)(=O)c2ccc(-n3cnnn3)cc2)CC1 | -69
CCOC(=O)c1c(-c2ccccc2)oc2ccc(O)cc12 | 19.8
CCOC(=O)c1cc2c(=O)n3ccccc3nc2n(CCOC)c1=NC(=O)C(C)(C)C | -4.45
O=C1OCCN1CC(=O)N1CCc2c([nH]c3ccccc23)C1c1ccccn1 (stereo not shown) | -3.43
CCCCCCCNC(=O)C1(CC2CC(c3cccc(Br)c3)=NO2)CCN(C(=O)OC(C)(C)C)CC1 (stereo not shown) | 3.88
Cc1ccccc1-n1c(C)cc(/C=N/Nc2ccc([N+](=O)[O-])cn2)c1C | 17.4
O=C(CN1C(=O)NC2(CCc3ccccc3C2)C1=O)NCc1ccco1 (stereo not shown) | 7.22
O=C(Nc1cccc(O)c1)C1CCCN1C(=O)OCc1ccccc1 (stereo not shown) | -7.35
CCc1ccc(NS(=O)(=O)c2c(C(=O)N3CCCCCC3)c(C)n(C)c2C)cc1 | 1.32
O=C(c1ccccc1)c1cc[n+]([O-])cc1 | 1.18
CCn1c(CNC(=O)c2ccccc2F)nnc1SCC(=O)Nc1nncs1 | 4.52
COCc1cc(=O)[nH]c(Nc2nc3ccccc3o2)n1 | -1.95
Clc1ccc2[nH]cc(-c3nnnn3-c3ccccc3)c2c1 | 2.38
CC1(C)CC(=O)C=C(NCC2CCCO2)C1 (stereo not shown) | 3.7
O=C(N/C(=C\c1ccco1)C(=O)N1CCCC(CO)C1)c1ccccc1 (stereo not shown) | 15.6
Cc1ccc(NC2=NCCCS2)cc1Cl | 7.68
CSCCC(NC(=O)c1ccccc1)C(=O)NCCCSc1ccccc1 (stereo not shown) | -34.2
O=C(CN1CCN(c2ccccn2)CC1)Nc1cccc(C(F)(F)F)c1 | -6.41

Compound | hERG current change (%, negative = inhibition) at 10uM [%]
CCN(CC)CCNC(CC(=O)Nc1ccc(Cl)cc1Cl)C(=O)O (stereo not shown) | 8.31
Fc1ccc(Oc2cnc3ccccc3n2)cc1 | -20
COc1ccccc1N1CCN(C(=O)c2cccc(NC3=NC4CS(=O)(=O)CC4S3)c2)CC1 (stereo not shown) | 15.6
CC1CC(=O)Nc2cc([N+](=O)[O-])ccc2N1 (stereo not shown) | 12.1
COc1ccc(C2NC3=C(CCCC3)C(C#N)(C#N)C2(C#N)C#N)cc1 (stereo not shown) | 17.6
CC(=O)c1sc(NC(=O)COc2ccc(Cl)cc2Cl)nc1C | 17.9
Cc1ccc(S(=O)(=O)NCc2ccccc2)s1 | 11
CCC(=O)Nc1cc(C)c(NC(=O)C23CC4CC(CC(C4)C2)C3)cn1 | 8.35
COc1ccc([N+](=O)[O-])cc1NC(=O)CSc1ccc2ccccc2c1 | 12
COC(=O)[C@@H]1C[C@H]1[C@@H](NP(=O)(c1ccccc1)c1ccccc1)c1ccccc1 | 9.28
Cc1ccccc1CN1CCN(C(=O)CC(C)C)CC1 | 7.69
COc1cccc(CNc2nc3ccccc3n2CCN2CCCCC2)c1 | -59.3
Cc1cc(NC(=O)c2cccc(S(=O)(=O)Nc3cccc(C(=O)O)c3)c2)no1 | 13.2
O=C(CCCOc1ccc(Cl)cc1Cl)Nc1ccccn1 | 24.2
Cn1c(=O)c2ncn(CC(=O)Nc3ccc(N4CCOCC4)cc3)c2n(C)c1=O | 7.22
Cc1ccc(-c2nn(-c3ccccc3)cc2/C=C(\C#N)C(=O)NCc2ccccc2)cc1 | -7.27
COc1ccc(OC)c(NC(=O)NCc2ccc(F)cc2)c1 | -15.9
COc1ccc(C)cc1NC(=O)CSc1ccc(-c2ccco2)nn1 | -0.864
CCN1C(=O)N(CC)C2NC(=S)NC21 (stereo not shown) | 17.4
COCCCn1c(C(=O)NCCC2=CCCCC2)cc2c(=O)n3ccccc3nc21 | -8.55
COc1ccccc1CNC(=S)Nc1ccc2nc(N3CCN(C)CC3)cc(C)c2c1 | -1.77
S=C(NC1CCCCC1)N1CCN(C2CCCCC2)CC1 | -15.4

Compound | hERG current change (%, negative = inhibition) at 10uM [%]
Cc1cccc(N(CC(=O)NCc2ccco2)C(=O)CNS(=O)(=O)c2ccc(F)cc2)c1 | 27.5
O=C(CSc1nnc(CNC(=O)c2ccco2)o1)Nc1ccc(OC(F)(F)F)cc1 | -52.6
c1ccc(OCCCCN2CCOCC2)cc1 | -14.5
Cc1cc(C(=O)COc2ccc3ccc(=O)oc3c2)c(C)n1C | 17.3
CC1CCN(C(=O)c2[nH]cnc2C(=O)Nc2ccon2)CC1 | 2.81
COc1ccc(N2C(=O)CC(N3CCC(O)(c4ccc(Cl)cc4)CC3)C2=O)cc1 (stereo not shown) | -21.5
CC1=CC2=NC(=O)/C(=C/c3cccn3Cc3ccccc3)C(=N)N2O1 | -14.1
CCC(C)Sc1nnc(CNS(=O)(=O)c2ccc(F)cc2)n1C (stereo not shown) | 13.8
COc1ccc(-n2c(C)c(C)c3c(NCCCN(C)C)ncnc32)cc1 | -53.1
Cc1cc(S(=O)(=O)NCc2cccnc2)ccc1F | -3.24
CCCCN1C(=O)C(=O)N(CC(=O)NC2CCCc3ccccc32)C1=O (stereo not shown) | 21.1
COC(=O)C1=C(c2c(C)noc2C)C[C@@H]2CC[C@H]1N2C(=O)N1CCCCC1 | 17.1
CC(=O)c1ccc(N2CCN(C(=O)C3CCCN3S(=O)(=O)c3cccc4nsnc34)CC2)cc1 (stereo not shown) | -1.72
O=C1OC2(c3ccccc31)c1cc(I)c(O)c(I)c1Oc1c2cc(I)c(O)c1I | 5.17
Oc1c(Br)cc(Br)cc1/C=N/c1nc2c(s1)CCCC2 | -2.11
COc1cc(/C=C(\C#N)C(=O)NCC2CCCO2)ccc1OC(=O)c1ccco1 (stereo not shown) | 3.54
CCc1nn(CC(=O)NCCCN(CC)CC)c(=O)c2cc3sc(C)cc3n12 | 7.73
COc1ccc(N(CC(=O)NC2CCCC2)S(=O)(=O)c2ccc(NC(C)=O)cc2)cc1 | -8.33
O=C(Nc1ccc2c(c1)OCO2)N1CCN(c2ccccc2)CC1 | -9.85
O=[N+]([O-])c1c(Nc2ccccc2O)cc(Cl)c2nonc12 | -19.2
Cc1cccc(C(=O)NCC(=O)N2CC=C(c3ccccc3)CC2)c1 | -40.9
CC(C)N1CCc2c(sc(NC(=O)C3CCCCC3)c2C(N)=O)C1.Cl | -21.7
